Source: the supplement of paper PMC9446081
Hit rate of the full screen: of about 39,000 compounds, about 220 (0.56%) showed activity. The list shows a part of the results.

Tested on: Escherichia coli K-12 BW25113
Experiment: relative growth (OD600 normalised to plate interquartile mean) (fraction); higher = less growth inhibition, active = 0.2 or less
Details: 50 µM; LB; incubation time: overnight (16-24 h)
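Further: static incubation at 37 °C against the wild-type strain, values averaged over two biological replicates.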

SMILES	relative growth
C[C@@H]1CCCCO[C@@H](CN(C)CC2CCCCC2)[C@H](C)CN([C@@H](C)CO)C(=O)c2cc(NS(=O)(=O)c3cccs3)ccc2O1	inactive: 1.04
C[C@H]1CN([C@@H](C)CO)C(=O)Cc2cc(NC(=O)Cn3cnnn3)ccc2O[C@H]1CN(C)Cc1ccc(C(=O)O)cc1	inactive: 1.01
Cc1ccc(S(=O)(=O)Nc2ccc3c(c2)C(=O)N([C@H](C)CO)C[C@H](C)[C@H](CN(C)Cc2ccncc2)OCCCC[C@H](C)O3)cc1	inactive: 0.982
CC(COc1ccccc1)NC(C)C(O)c1ccc(O)cc1.Cl (centres undefined)	inactive: 1.02
CSCC[C@H](NC(=O)[C@@H](N)Cc1c[nH]c2ccccc12)C(=O)N[C@@H](CC(=O)O)C(=O)N[C@@H](Cc1ccccc1)C(N)=O	inactive: 0.975
COc1ccc(S(=O)(=O)N(C)C[C@H]2Oc3c(NC(=O)Nc4c(C)noc4C)cccc3C(=O)N([C@H](C)CO)C[C@@H]2C)cc1	inactive: 0.993
CC(C)(C)c1n[nH]c(C(C)(C)C)c1Cc1c(F)cccc1Cl	inactive: 0.992
C[C@H](CO)N1C[C@H](C)[C@H](CN(C)Cc2ccc(C(=O)Nc3ccccc3N)cc2)Oc2ccc(NC(=O)Cc3cn(C)c4ccccc34)cc2CC1=O	inactive: 1.03
CCCNC(=O)N[C@H]1CC[C@H](CC(=O)N2CCN(C)CC2)O[C@@H]1CO	inactive: 0.969
C[C@@H]1CN([C@@H](C)CO)C(=O)c2cc(NC(=O)Nc3ccc(C(F)(F)F)cc3)ccc2O[C@@H](C)CCCCO[C@H]1CN(C)C(=O)Cc1ccccc1	inactive: 1.03
O=C(C[C@@H]1C=C[C@H](NC(=O)CN2CCOCC2)[C@H](CO)O1)NCCc1ccccc1	inactive: 0.941
C[C@@H]1CN([C@H](C)CO)C(=O)CCCn2cc(nn2)CO[C@@H]1CN(C)C(=O)Nc1ccc2c(c1)OCCO2	inactive: 0.979
O=C(O)c1ccc(O)c(O)c1O	inactive: 0.964
C[C@@H]1CCCCO[C@H](CN(C)C(=O)Cc2ccccc2)[C@H](C)CN([C@@H](C)CO)C(=O)c2cc(NC(=O)Nc3ccc4c(c3)OCO4)ccc2O1	inactive: 0.986
COc1ccccc1NC(=O)N(C)C[C@@H]1Oc2ncc(Br)cc2C(=O)N([C@H](C)CO)C[C@@H]1C	inactive: 0.946
C[C@H](CO)N1C[C@H](C)[C@H](CN(C)C(=O)C2CC2)Oc2ncc(-c3ccc(C(=O)N(C)C)cc3)cc2C1=O	inactive: 0.985
C[C@H](CO)N1C[C@H](C)[C@H](CN(C)Cc2ccc(Oc3ccccc3)cc2)Oc2ccc(NC(=O)CCCN(C)C)cc2CC1=O	inactive: 1.02
Cc1[nH]c(/C=C2\C(=O)Nc3ccc(S(=O)(=O)Cc4c(Cl)cccc4Cl)cc32)c(C)c1C(=O)N1CCC[C@@H]1CN1CCCC1	inactive: 1.14
COc1ccc(CN(C)C[C@@H]2Oc3ccc(NC(=O)CCN4CCOCC4)cc3C(=O)N([C@@H](C)CO)C[C@H]2C)cc1	inactive: 1
C[C@H](CO)N1C[C@H](C)[C@@H](CN(C)Cc2ccncc2)Oc2ccc(NS(=O)(=O)c3ccccc3)cc2CC1=O	inactive: 0.981

SMILES	relative growth
COc1ccc(NC(=O)N(C)C[C@@H]2Oc3ccc(NC(=O)C4CC4)cc3CC(=O)N([C@H](C)CO)C[C@H]2C)cc1	inactive: 0.984
COc1ccc(CN(C)C[C@H]2Oc3c(NC(=O)C4CCOCC4)cccc3C(=O)N([C@H](C)CO)C[C@@H]2C)cc1	inactive: 1
C[C@@H]1CN([C@@H](C)CO)C(=O)Cc2cc(NC(=O)NC3CCCCC3)ccc2O[C@@H]1CN(C)Cc1ccc(-c2ccccc2)cc1	inactive: 0.992
Cn1ccc(C(=O)N2CC[C@@H]3OCCN(S(C)(=O)=O)[C@@H]3C2)n1	inactive: 0.984
C[C@@H]1CN([C@@H](C)CO)S(=O)(=O)c2ccc(-c3ccc(C(=O)N(C)C)cc3)cc2O[C@H]1CN(C)C(=O)C1CC1	inactive: 1
COc1cc(O)c2c(=O)c(OC)c(-c3ccc(OC)c(OC)c3)oc2c1	inactive: 0.772
C[C@H](CO)N1C[C@H](C)[C@H](CN(C)C(=O)Nc2ccc(F)cc2)Oc2ncc(-c3cccc(C(F)(F)F)c3)cc2C1=O	inactive: 1.02
C[C@@H]1CN([C@@H](C)CO)C(=O)c2cccc(NC(=O)Nc3cccc4ccccc34)c2O[C@H]1CN(C)S(=O)(=O)c1ccc2c(c1)OCCCO2	inactive: 1.01
CN(CC(=O)Nc1cccc(S(=O)(=O)N2CCOCC2)c1)CC(=O)Nc1ccc(Cl)c(C(F)(F)F)c1	inactive: 1
C[C@H]1CCCCO[C@H](CN(C)CC2CCCCC2)[C@@H](C)CN([C@@H](C)CO)C(=O)c2cc(NS(=O)(=O)c3cccs3)ccc2O1	inactive: 0.987
C[C@H](CO)N1C[C@H](C)[C@H](CN(C)Cc2cccc(F)c2)OCc2ccccc2-c2c(n(C)c3ccccc23)C1=O	inactive: 1.02
C[C@H]1CCCCO[C@H](CN(C)S(=O)(=O)c2cccs2)[C@@H](C)CN([C@@H](C)CO)C(=O)c2cc(NS(=O)(=O)c3ccc(Cl)cc3)ccc2O1	inactive: 1.02
Cc1ccc(S(=O)(=O)N(C)C[C@H]2Oc3ccc(NS(=O)(=O)c4ccccc4)cc3CC(=O)N([C@@H](C)CO)C[C@H]2C)cc1	inactive: 0.993
O=c1cc(-c2ccccc2)oc2ccccc12	inactive: 0.995
COc1ccc(-c2cccc(-c3nc(C(=O)NCC(F)(F)F)cc4c3[C@H](CCO)N([S@@](=O)C(C)(C)C)C4)c2)cc1	inactive: 1.05
C[C@@H]1CN([C@@H](C)CO)C(=O)Cc2cc(NS(=O)(=O)c3cccs3)ccc2O[C@H]1CN(C)S(C)(=O)=O	inactive: 0.99
C[C@@H]1CN([C@H](C)CO)C(=O)c2c(c3ccccc3n2C)-c2ccccc2CO[C@H]1CN(C)Cc1ccccc1	inactive: 1.01
C[C@@H]1CN([C@H](C)CO)C(=O)c2cccc(NS(=O)(=O)c3cn(C)cn3)c2O[C@H]1CN(C)C(=O)Nc1ccc(F)cc1	inactive: 1.01
COc1ccc(S(=O)(=O)Nc2ccc3c(c2)C(=O)N([C@H](C)CO)C[C@@H](C)[C@@H](CN(C)C(=O)CCC(F)(F)F)OCCCC[C@H](C)O3)cc1	inactive: 0.991
